Source: PubChem BioAssay AID2676 (National Center for Advancing Translational Sciences (NCATS), 2010)
Out of some 370,000 compounds screened, about 1,100 (0.3%) were called active. About 1% were inconclusive and are not listed. The call rests on the fitted dose curve; in most records, active means well fitted activation curve with a large enough effect; inconclusive means small, poorly fitted or top-dose-only effect; inactive means flat fitted curve, though single readings scatter. Only a part is listed here, and it is no random draw. Where a structure was tested more than once in an assay, its records may differ in their call.

Biological target: Relaxin receptor 1 (Homo sapiens) (UniProt Q9HBX9)
Chain of UniProt Q9HBX9 (Q9HBX9 whole entry, looked up): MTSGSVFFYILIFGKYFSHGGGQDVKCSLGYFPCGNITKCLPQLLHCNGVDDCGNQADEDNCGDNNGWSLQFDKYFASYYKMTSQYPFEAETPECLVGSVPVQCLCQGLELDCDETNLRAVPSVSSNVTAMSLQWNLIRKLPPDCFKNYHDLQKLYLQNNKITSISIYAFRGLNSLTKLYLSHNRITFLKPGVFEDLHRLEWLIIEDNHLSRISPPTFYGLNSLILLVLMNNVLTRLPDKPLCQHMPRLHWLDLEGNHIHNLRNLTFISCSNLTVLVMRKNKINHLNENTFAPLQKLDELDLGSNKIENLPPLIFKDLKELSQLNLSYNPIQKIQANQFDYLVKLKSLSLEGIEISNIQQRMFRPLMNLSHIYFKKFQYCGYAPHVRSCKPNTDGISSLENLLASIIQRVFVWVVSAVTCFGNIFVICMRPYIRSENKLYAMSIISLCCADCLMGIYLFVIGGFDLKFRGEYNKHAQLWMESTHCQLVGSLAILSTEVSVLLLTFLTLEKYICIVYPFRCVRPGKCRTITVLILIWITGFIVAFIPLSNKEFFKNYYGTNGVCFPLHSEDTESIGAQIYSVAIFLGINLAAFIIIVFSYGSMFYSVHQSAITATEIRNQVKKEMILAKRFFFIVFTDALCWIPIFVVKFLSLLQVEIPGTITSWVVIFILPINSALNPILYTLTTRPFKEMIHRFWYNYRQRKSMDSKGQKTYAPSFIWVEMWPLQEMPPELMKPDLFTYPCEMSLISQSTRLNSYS
Test: qHTS Assay for Agonists of the Relaxin Receptor RXFP1; further: nearly all actives have a fitted effect of over 60% in size
Settings: HEK293T-RXFP1 cAMP TR-FRET, 30 min; series mostly up to 57.5 µM; activation: at the top concentration
Description: NIH Chemical Genomics Center [NCGC] NIH Molecular Libraries Probe Production Centers Network [MLPCN] MLPCN Grant: R03 MH085705-01A1 Assay Submitter (PI): Alexander Agoulnik NCGC Assay Overview: The relaxin hormone is involved in the variety of biological functions in normal tissues and diseases. The role of relaxin is well-established in female reproduction and parturition, mammary gland and endometrial development, maintenance of myometrial quiescence during pregnancy. Relaxin signaling through its G protein-coupled receptor (GPCR) RXFP1 results in ECM remodeling through regulation of collagen deposition, cell invasiveness, proliferation and overall tissue homeostasis. […] Recombinant human relaxin (rhRlx) is currently being tested in clinical trials as a protective agent in congestive heart failure, in treating severe preeclampsia, and as an anti-fibrotic agent in systemic sclerosis. Upon relaxin binding RXFP1 activation leads to the activation of adenylate cyclase (AC) via Gs. cAMP will activate PKA, which phosphorylates many signaling proteins. Thus, detection of cAMP increase is an easy and reliable indication of relaxin receptor activation. To screen for agonists of the relaxin receptor, a HEK293T cell line stably transfected with RXFP1 was used. RXFP1 activation was assayed by changes in cAMP levels as detected with a time-resolved fluorescence energy transfer (TR-FRET) cAMP detection kit.
NCGC Assay Protocol Summary: This is a cell-based assay for cAMP second messenger response to screen for agonists of the RXFP1 receptor. The assay was conducted in the presence of a PDE4 inhibitor (Ro 20174). The cells were lysed and the cAMP levels were measured with a TR-FRET cAMP kit. Presence of cAMP in the cell lysate disrupts binding between the cryptate-labeled anti-cAMP and d2-labeled cAMP pair, leading to a decrease in the TR-FRET signal. Data were normalized to the controls for basal activity (buffer only) and 100% activity (29 nM porcine relaxin). The EC50 values were determined from concentration-response data modeled with the standard Hill equation 1536-well assay protocol for the HEK293 RXFP1 cAMP assay: (1) Add 3 ul HEK293 RXFP1 cell culture. 2000 cells/well in DMEM/F12, 10% FBS, 1x Pen/Strep (dispensed offline with MultiDrop Combi). (2) Incubate 16-24 hr at 37C, 5% CO2. (3) Add 1 ul 400uM Ro20174 in DPBS, 0.05% BSA, 0.005% Tween 20. (3) Add 23 nl compounds in DMSO solution. Final concentration was 0.5 - 58 uM. (4) Incubate 30 min at 37C, 5% CO2. (5) Add 1 ul cAMP-d2 in lysis buffer (HTRF cAMP HiRange kit, CisBio). (6) Add 1 ul anti-cAMP antibody-cryptate in lysis buffer (HTRF cAMP HiRange kit, CisBio). (7) Incubate 30 min at room temperature. (6) Detect the assay plate in a ViewLux plate reader (PerkinElmer) with Ex=320 nm, Em1=615 nm and Em2=665 nm. Keywords: relaxin, RXFP1, RXFP2, G-protein coupled receptor, cAMP, agonist, high throughput screening, MLSMR, MLSCN, NIH Roadmap, qHTS and NCGC
On the % scale 0 is the no-effect control and ±100 the full control effect; potency means the concentration at half of the fitted maximal effect.

activation, inactive:
C=C(C)C(=O)Nc1ccc(NC(C)C)cc1 -32.7%
COc1cc(SSc2cc(OC)cc([N+](=O)[O-])c2N)c(N)c([N+](=O)[O-])c1 -44.7%
Cc1cccc(-c2nc3c4c(-c5ccccc5)c(-c5ccccc5)oc4ncn3n2)c1 -46.1%
Cc1cc(C)c(NC(=O)Cn2cnc3c(oc4ccccc43)c2=O)c(C)c1 -0.287%
CSc1c(C#N)c(N)nc2sc(C(=O)c3ccccc3)c(N)c12 -49%
CC(C)C(=O)N1CCC2(CC1)Oc1ccc(F)cc1C(=O)C21CC(c2ccc(Cl)cc2)=NO1 (centres undefined) 0%
Cc1ccc(NC(=O)Cn2cc(C(=O)C3CC3)c3ccccc32)c(C)c1 -2.98%
CN1C=CC(=CC=C2C=CC(=O)C=C2)C=C1 -37.5%
COc1ccc(C(=O)Nc2ccc3oc(-c4ccc5ccccc5c4)nc3c2)cc1Br -33.3%
CCOc1ccc(CCNC(=O)CCCn2c(=O)c3cccn3c3cccnc32)cc1OCC 24.4%
Nc1nc(Cl)nc2c1ncn2C1CC(O)C(CO)O1 (centres undefined) 12%
O=C(N/N=C/c1ccc2nccnc2c1)c1ccc(Br)cc1 -166%
Cc1cccc(C(=O)Nc2nnc(S(=O)(=O)N3CCC(C)CC3)s2)c1 -1.11%
CNS(=O)(=O)c1ccc(NC(=O)c2nc3nc(C)cc(C(F)F)n3n2)cc1 -0.0508%
CCCCNC(=O)Nc1ccc2c(c1)N(C)C(=O)c1ccccc1S2 -1.82%
CC(C)CN(c1ccccc1)S(=O)(=O)c1nnc(NC(=O)c2ccco2)s1 0.352%
COCCN1CCn2c(nc3cc(Nc4nnc(C)c5ccccc45)ccc32)C1 -39.4%
COc1ccc(OC)c(-c2cc(C(=O)NCc3ccc(Cl)cc3)no2)c1 11.7%
Cc1ccc(SCC(=O)Nc2ccc3oc(-c4ccc(F)cc4)nc3c2)cc1 -37.3%
CCn1c(=O)c2cc(C(=O)Nc3cccc(C(C)=O)c3)sc2c2ccccc21 -35.8%
Cc1ccc(-c2nc(NC(=O)CSc3cc(C)c4ccccc4n3)ns2)cc1 8.57%
CN(C)CCNC(=O)Cn1c(=O)c2cccn2c2ccc(F)cc21 0.412%
CN1c2ccc(C=O)c3c(C=O)ccc(c23)N(C)C1(C)C -66.2%
Cc1ccc(-c2cc(C(=O)NCc3cnn(C)c3)c3cc(Br)ccc3n2)cc1 23.2%
CNc1nc(SC)n(C)c(=O)c1N=O -46.3%
CC(=O)Oc1ccc2oc(-c3ccccc3)c(C(N)=O)c2c1 -31.7%
Nc1c(Cl)ncnc1N/N=C/c1ccc(O)cc1 -45.6%
Nc1ncnc2c1ncn2C1O[C@H](CO)[C@@H](O)[C@@H]1O (some centres undefined) -0.0761%
CCc1nonc1NC(=O)c1oc2ccc(Br)cc2c1C 12.9%
O=C(COc1ccccc1Cl)Nc1ccc2oc(-c3ccccc3F)nc2c1 -65.5%
O=C(Nc1nnc(S(=O)(=O)N2CCCCC2)s1)c1ccccc1Br -1.82%
Cc1nc(-c2cc(C#N)c(=O)[nH]c2C)cs1 -32.1%
CC(C)NC[C@H](O)c1ccc(O)c(O)c1 22.9%
Cc1ccc(-n2nc(C)c3c(C)c(CCC(=O)NC(C)c4ccccc4)c(C)nc32)cc1 (centres undefined) -0.768%
Cc1ccc(NC(=O)c2oc3ccc(S(=O)(=O)N4CCOCC4)cc3c2C)c(C)c1 10.9%
O=C(NNc1c2ccccc2nc2ccccc12)C(O)c1ccccc1 (centres undefined) -37.6%
Cc1ccc(C)c2c1cc(C)c1nnc(SCC(=O)Nc3cccc(C(=O)O)c3)n12 -46.3%

Potency, active:
CCOC(=O)N1CCN(C(=O)CSc2ccc3nnc(-c4cccnc4)n3n2)CC1 14.1 µM
CN(C)c1ccc(-c2nc3cc(N)ccc3o2)cc1 28.2 µM
COc1cc(/C=N/NC(=O)Cn2cnc3c2c(=O)n(C)c(=O)n3C)ccc1O 15.8 µM
C=CCOc1cccc(C2/C(=C(\O)c3ccc4c(c3)OCCO4)C(=O)C(=O)N2CCN2CCOCC2)c1 (centres undefined) 25.1 µM
COc1ccc(CCn2c(=N)c(C(=O)NCC3CCCO3)cc3c(=O)n4cccc(C)c4nc32)cc1 (centres undefined) 17.8 µM
CCc1cc2cc3c(cc2nc1SCC(=O)Nc1cc(C)on1)OCO3 28.2 µM
COc1ccc(-n2c(=O)c3ccc(C(=O)NCc4ccc(C)cc4)cc3n(CC(=O)Nc3cccc(F)c3)c2=O)cc1 31.6 µM
O=[N+]([O-])c1cccc(CSc2nnc3ccccn23)c1 25.1 µM
CNC(=O)[C@H]1O[C@@H](n2cnc3c(NCc4cccc(I)c4)ncnc32)[C@H](O)[C@@H]1O 15.8 µM
Cc1cc(NC(=O)CSc2ncnc3c2cnn3-c2cccc(Cl)c2)no1 6.31 µM
CCC(=O)Nc1ccc(NC(=O)CSc2nc3c(c(=O)n(C)c(=O)n3C)n2CC)cc1 15.8 µM
CSc1cc(-c2ccc(Cl)cc2)n(Cc2ccccc2)c(=O)c1C#N 22.4 µM
